# Test results reported in the supplement of paper PMC8728848.
# This is one part of the list.
# Legend:
# Experiment in all cases: glycan array binding signal (z-score within array); higher = stronger binding
# Settings in all cases: glycan notation: IUPAC condensed, linker removed
# [1] = target: Gal(b1-4)GlcNAc(b1-6)[Gal(b1-3)]GalNAc
# Procedure, shortened: (§1)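 The binding signal is a Z-score computed within each array. Data were drawn from 3228 arrays in the Consortium for Functional Glycomics database, restricted to those with a known protein sequence. Scores were averaged over arrays of the same protein sequence at different concentrations or buffers, and over linkers, and negative values can be taken as non-binding.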
# [2] = target: Gal(b1-4)GlcNAc(b1-6)[Gal(b1-4)GlcNAc(b1-3)]GalNAc
# Procedure, shortened: as §1
# Gal(b1-4)GlcNAc6P = target: Gal(b1-4)GlcNAc6P
# Procedure, shortened: as §1
# Gal(b1-6)Gal = target: Gal(b1-6)Gal
# Procedure, shortened: as §1
# Gal3S(b1-3)GalNAc = target: Gal3S(b1-3)GalNAc
# Procedure, shortened: as §1
# Gal3S(b1-3)GlcNAc = target: Gal3S(b1-3)GlcNAc
# Procedure, shortened: as §1
# [3] = target: Gal3S(b1-3)[Fuc(a1-4)]GlcNAc
# Procedure, shortened: as §1
# Gal3S(b1-4)Glc = target: Gal3S(b1-4)Glc
# Procedure, shortened: as §1
# Gal3S(b1-4)Glc6S = target: Gal3S(b1-4)Glc6S
# Procedure, shortened: as §1
# Gal3S(b1-4)GlcNAc = target: Gal3S(b1-4)GlcNAc
# Procedure, shortened: as §1
# Gal3S(b1-4)GlcNAc6S = target: Gal3S(b1-4)GlcNAc6S
# Procedure, shortened: as §1
# [4] = target: Gal3S(b1-4)[Fuc(a1-3)]Glc6S
# Procedure, shortened: as §1
# [5] = target: Gal3S(b1-4)[Fuc(a1-3)]GlcNAc
# Procedure, shortened: as §1
# [6] = target: Gal3S(b1-4)[Fuc(a1-3)]GlcNAc6S
# Procedure, shortened: as §1
# Gal3S4S(b1-4)GlcNAc = target: Gal3S4S(b1-4)GlcNAc
# Procedure, shortened: as §1
# Gal3S6S(b1-4)GlcNAc = target: Gal3S6S(b1-4)GlcNAc
# Procedure, shortened: as §1
# Gal3S6S(b1-4)GlcNAc6S = target: Gal3S6S(b1-4)GlcNAc6S
# Procedure, shortened: as §1
# Gal4S(b1-4)GlcNAc = target: Gal4S(b1-4)GlcNAc
# Procedure, shortened: as §1
# Gal4S6S(b1-4)GlcNAc = target: Gal4S6S(b1-4)GlcNAc
# Procedure, shortened: as §1
# Gal6P(b1-4)GlcNAc = target: Gal6P(b1-4)GlcNAc
# Procedure, shortened: as §1
# Gal6S(b1-3)GlcNAc = target: Gal6S(b1-3)GlcNAc
# Procedure, shortened: as §1
# Gal6S(b1-3)GlcNAc6S = target: Gal6S(b1-3)GlcNAc6S
# Procedure, shortened: as §1
# Gal6S(b1-4)Glc = target: Gal6S(b1-4)Glc
# Procedure, shortened: as §1
# Gal6S(b1-4)Glc6S = target: Gal6S(b1-4)Glc6S
# Procedure, shortened: as §1
# Gal6S(b1-4)GlcNAc = target: Gal6S(b1-4)GlcNAc
# Procedure, shortened: as §1
# Gal6S(b1-4)GlcNAc6S = target: Gal6S(b1-4)GlcNAc6S
# Procedure, shortened: as §1
# GalNAc(a1-3)Gal = target: GalNAc(a1-3)Gal
# Procedure, shortened: as §1
# GalNAc(a1-3)GalNAc = target: GalNAc(a1-3)GalNAc
# Procedure, shortened: as §1
# [7] = target: GalNAc(a1-3)GalNAc(a1-3)Gal(a1-4)Gal(b1-4)GlcNAc
# Procedure, shortened: as §1
# [8] = target: GalNAc(a1-3)GalNAc(b1-3)Gal(a1-4)Gal(b1-4)Glc
# Procedure, shortened: as §1
# GalNAc(b1-3)Gal = target: GalNAc(b1-3)Gal
# Procedure, shortened: as §1
# [9] = target: GalNAc(b1-3)Gal(a1-4)Gal(b1-4)GlcNAc
# Procedure, shortened: as §1
# [10] = target: GalNAc(b1-3)Gal(a1-4)Gal(b1-4)GlcNAc(b1-3)Gal(b1-4)Glc
# Procedure, shortened: as §1
# [11] = target: GalNAc(b1-3)Gal(a1-6)Gal(b1-4)Glc
# Procedure, shortened: as §1
# GalNAc(b1-3)GalNAc = target: GalNAc(b1-3)GalNAc
# Procedure, shortened: as §1
# GalNAc(b1-3)GlcNAc = target: GalNAc(b1-3)GlcNAc
# Procedure, shortened: as §1
# GalNAc(b1-4)Gal(b1-4)Glc = target: GalNAc(b1-4)Gal(b1-4)Glc
# Procedure, shortened: as §1
# GalNAc(b1-4)GlcNAc = target: GalNAc(b1-4)GlcNAc
# Procedure, shortened: as §1
# [12] = target: GalNAc(b1-4)GlcNAc(b1-2)Man
# Procedure, shortened: as §1
# [13] = target: GalNAc(b1-4)GlcNAc(b1-2)Man(a1-3)[GalNAc(b1-4)GlcNAc(b1-2)Man(a1-6)]Man(b1-4)GlcNAc(b1-4)GlcNAc
# Procedure, shortened: as §1
# [14] = target: GalNAc(b1-4)GlcNAc(b1-3)GalNAc(b1-4)GlcNAc
# Procedure, shortened: as §1
# GalNAc(b1-4)GlcNAc6S = target: GalNAc(b1-4)GlcNAc6S
# Procedure, shortened: as §1
# GalNAc(b1-6)GalNAc = target: GalNAc(b1-6)GalNAc
# Procedure, shortened: as §1
# GalNAc3S(b1-4)GlcNAc = target: GalNAc3S(b1-4)GlcNAc
# Procedure, shortened: as §1
# GalNAc3S(b1-4)GlcNAc3S = target: GalNAc3S(b1-4)GlcNAc3S
# Procedure, shortened: as §1
binder,measurement,setting,value
"ECA (Erythrina cristagalli), P83410 (protein) VETISFSFSEFEPGNDNLTLQGAALITQSGVLQLTKINQNGMPAWDSTGRTLYTKPVHMWDSTTGTVASFETRFSFSIEQPYTRPLPADGLVFFMGPTKSKPAQGYGYLGVFNNSKQDNSYQTLAVEFDTFSNPWDPPQVPHIGIDVNSIRSIKTQPFQLDNGQVANVVIKYDAPSKILHVVLVYPSSGAIYTIAEIVDVKQVLPDWVDVGLSGATGAQRDAAETHDVYSWSFQASLPE",glycan array binding signal (z-score),[1],0.795
same,glycan array binding signal (z-score),[2],-0.363
same,glycan array binding signal (z-score),Gal(b1-4)GlcNAc6P,-0.214
same,glycan array binding signal (z-score),Gal(b1-6)Gal,0.357
same,glycan array binding signal (z-score),Gal3S(b1-3)GalNAc,-0.141
same,glycan array binding signal (z-score),Gal3S(b1-3)GlcNAc,-0.186
same,glycan array binding signal (z-score),[3],-0.254
same,glycan array binding signal (z-score),Gal3S(b1-4)Glc,-0.158
same,glycan array binding signal (z-score),Gal3S(b1-4)Glc6S,0.29
same,glycan array binding signal (z-score),Gal3S(b1-4)GlcNAc,-0.216
same,glycan array binding signal (z-score),Gal3S(b1-4)GlcNAc6S,-0.26
same,glycan array binding signal (z-score),[4],0.936
same,glycan array binding signal (z-score),[5],-0.508
same,glycan array binding signal (z-score),[6],0.644
same,glycan array binding signal (z-score),Gal3S4S(b1-4)GlcNAc,-0.265
same,glycan array binding signal (z-score),Gal3S6S(b1-4)GlcNAc,-0.133
same,glycan array binding signal (z-score),Gal3S6S(b1-4)GlcNAc6S,-0.076
same,glycan array binding signal (z-score),Gal4S(b1-4)GlcNAc,-0.079
same,glycan array binding signal (z-score),Gal4S6S(b1-4)GlcNAc,-0.3
same,glycan array binding signal (z-score),Gal6P(b1-4)GlcNAc,-1.57
same,glycan array binding signal (z-score),Gal6S(b1-3)GlcNAc,-0.456
same,glycan array binding signal (z-score),Gal6S(b1-3)GlcNAc6S,-0.604
same,glycan array binding signal (z-score),Gal6S(b1-4)Glc,-0.291
same,glycan array binding signal (z-score),Gal6S(b1-4)Glc6S,-0.209
same,glycan array binding signal (z-score),Gal6S(b1-4)GlcNAc,-0.323
same,glycan array binding signal (z-score),Gal6S(b1-4)GlcNAc6S,-0.474
same,glycan array binding signal (z-score),GalNAc(a1-3)Gal,-0.255
same,glycan array binding signal (z-score),GalNAc(a1-3)GalNAc,-0.186
same,glycan array binding signal (z-score),[7],-0.554
same,glycan array binding signal (z-score),[8],-0.535
same,glycan array binding signal (z-score),GalNAc(b1-3)Gal,-0.272
same,glycan array binding signal (z-score),[9],-0.08
same,glycan array binding signal (z-score),[10],-0.322
same,glycan array binding signal (z-score),[11],-0.175
same,glycan array binding signal (z-score),GalNAc(b1-3)GalNAc,-0.235
same,glycan array binding signal (z-score),GalNAc(b1-3)GlcNAc,-0.668
same,glycan array binding signal (z-score),GalNAc(b1-4)Gal(b1-4)Glc,-0.179
same,glycan array binding signal (z-score),GalNAc(b1-4)GlcNAc,1.84
same,glycan array binding signal (z-score),[12],-0.413
same,glycan array binding signal (z-score),[13],1.35
same,glycan array binding signal (z-score),[14],-0.593
same,glycan array binding signal (z-score),GalNAc(b1-4)GlcNAc6S,0.558
same,glycan array binding signal (z-score),GalNAc(b1-6)GalNAc,-0.391
same,glycan array binding signal (z-score),GalNAc3S(b1-4)GlcNAc,-0.441
same,glycan array binding signal (z-score),GalNAc3S(b1-4)GlcNAc3S,-0.509
